# A collection of fitness landscapes (doi:10.1126/science.1257360)
# The other results are listed elsewhere or left out.
# B1: PhoQ; a variant is named by its letters at X, in order, P23837 (parent)
# chain: MKKLLRLFFPLSLRVRFLLATAAVVLVLSLAYGMVALIGYSVSFDKTTFRLLRGESNLFYTLAKWENNKLHVELPENIDKQSPTMTLIYDENGQLLWAQRDVPWLMKMIQPDWLKSNGFHEIEADVNDTSLLLSGDHSIQQQLQEVREDDDDAEMTHSVAVNVYPATSRMPKLTIVVVDTIPVELKSSYMVWSWFIYVLSANLLLVIPLLWVAAWWSLRPIEALAKEVRELEEHNRELLNPATTRELTSLVRNLNRLLKSERERYDKYRTTLTDLTHSLKTPLXXLQXXLRSLRSEKMSVSDAEPVMLEQISRISQQIGYYLHRASMRGGTLLSRELHPVAPLLDNLTSALNKVYQRKGVNISLDISPEISFVGEQNDFVEVMGNVLDNACKYCLEFVEISARQTDEHLYIVVEDDGPGIPLSKREVIFDRGQRVDTLRPGQGVGLAVAREITEQYEGKIVAGESMLGGARMEVIFGRQHSAPKDE
# Variants of: B1
# Experiment: enrichment ratio after two sorts for PhoP signalling (ratio (wild type AVST 3.29)); higher = more functional
# Conditions: with PhoP (E. coli)
row,Variant,enrichment ratio
1,KVNT,≤ 0.25
2,TYNS,4.69
3,YYPK,≤ 0.25
4,EHFF,0.435
5,QTAH,≤ 0.25
6,YDVA,≤ 0.25
7,SMTY,5.28
8,FCKV,≤ 0.25
9,FDKG,≤ 0.25
10,RIFP,≤ 0.25
11,RRAK,≤ 0.25
12,SMHL,≤ 0.25
13,QVPD,≤ 0.25
14,LGVK,≤ 0.25
15,GEVP,≤ 0.25
16,AECP,≤ 0.25
17,HDTG,≤ 0.25
18,PRFS,≤ 0.25
19,QVYH,≤ 0.25
20,DKIF,≤ 0.25
21,AKYT,1.73
22,VNPK,≤ 0.25
23,FVNH,≤ 0.25
24,VKGP,≤ 0.25
25,RSWS,≤ 0.25
26,VQNC,≤ 0.25

row,Variant,enrichment ratio
1,AELK,11.5
2,EIWC,≤ 0.25
3,LGIM,≤ 0.25
4,AMIT,≤ 0.25
5,PDFP,≤ 0.25
6,FKLI,2.7
7,PMSF,≤ 0.25
8,YEYR,≤ 0.25
9,MPVY,≤ 0.25
10,PNYS,≤ 0.25
11,RYRG,≤ 0.25
12,KNHD,≤ 0.25
13,GEVD,≤ 0.25
14,NNEE,≤ 0.25
15,DYSM,≤ 0.25
16,WATL,≤ 0.25
17,YINR,≤ 0.25
18,SDPW,≤ 0.25
19,NMIF,≤ 0.25
20,AGSM,4.42
21,IAEM,≤ 0.25
22,CFSG,≤ 0.25
23,NWRC,≤ 0.25
24,PLKM,≤ 0.25
25,VNHY,≤ 0.25
26,QLTS,≤ 0.25

row,Variant,enrichment ratio
1,RRDP,≤ 0.25
2,KMRK,≤ 0.25
3,GLKS,≤ 0.25
4,LTHN,≤ 0.25
5,THGL,6.65
6,VLII,≤ 0.25
7,GAMG,≤ 0.25
8,TMQM,12.8
9,NLTR,≤ 0.25
10,ICQA,≤ 0.25
11,LKPE,≤ 0.25
12,DEWG,≤ 0.25
13,LLIG,≤ 0.25
14,DPVI,≤ 0.25
15,PDPW,≤ 0.25
16,VCVA,≤ 0.25
17,LTDP,≤ 0.25
18,FYME,≤ 0.25
19,DMVA,≤ 0.25
20,YIYV,≤ 0.25
21,QFCT,≤ 0.25
22,ICNN,≤ 0.25
23,GEWL,≤ 0.25
24,VCPT,≤ 0.25
25,MYLW,≤ 0.25
26,WDYA,≤ 0.25

row,Variant,enrichment ratio
1,PIIH,≤ 0.25
2,VYYQ,≤ 0.25
3,LNLP,≤ 0.25
4,IRNR,≤ 0.25
5,SQTG,9.26
6,PSKY,≤ 0.25
7,NGRM,≤ 0.25
8,TEYG,1.95
9,GIVA,9.51
10,IHTV,≤ 0.25
11,IDDW,≤ 0.25
12,TWLI,≤ 0.25
13,PCQQ,≤ 0.25
14,VRKE,≤ 0.25
15,VEVS,3.82
16,LIPD,≤ 0.25
17,YMFG,≤ 0.25
18,SPSN,≤ 0.25
19,LWKG,≤ 0.25
20,GLED,≤ 0.25
21,DWVY,≤ 0.25
22,HDFL,≤ 0.25
23,IFFF,≤ 0.25
24,KLIL,≤ 0.25
25,ENGY,≤ 0.25
26,IDVN,≤ 0.25

row,Variant,enrichment ratio
1,YMGW,≤ 0.25
2,HFQQ,≤ 0.25
3,HNGF,≤ 0.25
4,FYRG,≤ 0.25
5,RNNN,≤ 0.25
6,FSCK,≤ 0.25
7,NVMG,≤ 0.25
8,VGPP,≤ 0.25
9,QARH,≤ 0.25
10,NSYG,≤ 0.25
11,TSHS,5.44
12,HFSE,≤ 0.25
13,LSAK,≤ 0.25
14,DRDF,≤ 0.25
15,ENYC,≤ 0.25
16,MRIA,≤ 0.25
17,ADQN,≤ 0.25
18,RCII,≤ 0.25
19,MCSR,≤ 0.25
20,SSLW,0.881
21,GPWP,≤ 0.25
22,QLLQ,≤ 0.25
23,RTFL,≤ 0.25
24,YHYV,≤ 0.25
25,LALH,≤ 0.25
26,PIAG,≤ 0.25

row,Variant,enrichment ratio
1,NDDK,≤ 0.25
2,IRID,≤ 0.25
3,QNWC,≤ 0.25
4,YNTK,≤ 0.25
5,DDHF,≤ 0.25
6,GLKF,≤ 0.25
7,DSFF,≤ 0.25
8,FRLM,≤ 0.25
9,KINP,≤ 0.25
10,KDFW,≤ 0.25
11,SDTE,≤ 0.25
12,MGIN,≤ 0.25
13,ELFM,≤ 0.25
14,IDSG,≤ 0.25
15,AAGP,≤ 0.25
16,HFPI,≤ 0.25
17,EECH,≤ 0.25
18,FMNR,≤ 0.25
19,LSNS,≤ 0.25
20,GNHT,≤ 0.25
21,PVFD,≤ 0.25
22,LHHT,≤ 0.25
23,SMPE,0.359
